# Laboratory results: the supplement of paper PMC11417369
# This is one part of the list.
# Test system: PfAP2-HC AP2 domain (GST-tagged)
# Test: gcPBM binding intensity (ln(normalized median fluorescence intensity)); higher = stronger DNA binding
# How it was run: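 GST-tagged P. falciparum DNA-binding domains produced in E. coli were incubated for 1 h on an Agilent 4 × 180k array of primer-extended double-stranded 36-bp intergenic genomic probes with negative controls. Binding intensity is the highest Masliner-normalised natural-log median intensity across replicate spots of either probe orientation, with bound protein detected by Alexa488 anti-GST antibody at 488 nm.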
row,Sequence,gcPBM binding intensity (ln)
1,ATCTTGAAGATTATTTGTACACAAAAGTTAAAATAT [XGTACX_site242],9.47
2,ATATAAATATATTTTACACACAATGGAGAAAAAAAT [CACACA_site6450],10.2
3,TATATAATTATTTATTGTACACTCAAATCGATAAGG [XGTACX_site3216],9.52
4,TATTTATAAATATAAACACACAACATTCTATGCATA [CACACA_site3243],9.77
5,TTTTTCATTTAACAGAAGGGAGATAAAAAAAAAAAA [TGCATGCA_negctrl_site261],9.03
6,ATATTATTTTAAAGTACACACATATATTGATATATA [CACACA_site7153],9.8
7,AATAATTATAAAAAATGTACAAAAAAAAAAAAAAAA [XGTACX_site3681],9.25
8,GTATGTATGTATGTATGTACGTATGTATGTATATAT [XGTACX_site3369],9.8
9,AGAATACATCTATGAACACACAGAGTTTTAAAAAAT [CACACA_site5514],9.86
10,ACCTTTTGGATTATATGTACATATATATATATATAT [XGTACX_site2687],9.78
11,ATTAAAAATAAGAAGAGTACATATAATATATATACA [XGTACX_site3092],9.65
12,TTAAAAAGAAAGTTCACACACATATATATGACGGAA [CACACA_site2602],10.1
13,AAAATAATATTTAATACACACATAATTATAATATAA [CACACA_site782],9.78
14,ATTTTTAATTGAATCACACATTTCCTTTCTTTTGTG [CACACA_site4438],9.67
15,CATAAAATATAAAACACACACACATATATTTATATA [CACACA_site6247],10.5
16,AAATAAAAGTTCACCTGTACACACATATATATATGT [XGTACX_site3513],10.2
17,TTAACATAGATATATACACACCAATGATGGCATTTA [CACACA_site6840],9.65
18,TATATATATATATATATACACACTATATAATTCAAA [CACACA_site1023],9.58
19,TTTTTTTTTTTTTAGAGTACACACTTTTTTACATTT [XGTACX_site8159],9.53
20,ATACTAAATATAAATTGTACTTTATTTATATTGAGA [XGTACX_site8699],9.48
21,ATATATAATACTACAGTGCAATATATTATATTTGTT,9.76
22,TTCCTCTTAAAATATACACACTGATTTAAGAAAAAA [CACACA_site5770],9.33
23,GCAAATCATGCTATGGTGCATATGTAAGATGAGCAT,9.63

row,Sequence,gcPBM binding intensity (ln)
1,TTGTGATTATTATATTGTACAATAAGTATTAAAGAA [XGTACX_site2753],9.7
2,AACTGAGAAACCGAAGTGCAATATGTATATATACAT,9.72
3,ATATATAATATATATGCATGTGACATTAATAATATA [TGCATGCA_site880],9.69
4,TAATTTAAAAATATAAATGTTTCACTTATATATTTT [TGCATGCA_negctrl_site399],9.48
5,ATATGAAAGGTGTACACACGCACACCCAAAAAAATA [CACACA_site2911],9.99
6,TTTTTTACGCATAACTTAATATGAGAATCCCTTTCT [GTGCAC_negctrl_site522],9.4
7,CCACACTTAAAATACACACACACCAAAAAAAAAAAA [CACACA_site2709],11.3
8,GGGAGGATAGTTCACAGTACCCAGTAACTCTACGGA [XGTACX_site2558],9.3
9,ATTTATTGACTATTTACACACATATTTATTAGAATA [CACACA_site6863],9.87
10,ATGATACATAAAGAATATAAAACATGAAATATAATA [CACACA_negctrl_site1461],9.79
11,GCCACACTTTTCTGCACACATAAAAAATATATAAAT [CACACA_site578],9.89
12,CATAAGAGGAACTTTTGTACTTATATGTATATAGTA [XGTACX_site5836],9.4
13,CTTTTATGAAACAGTGCACACATAAAAATATATACA [CACACA_site8981],9.74
14,TATATCGTTATATAAACACACAATATGTTTTTTATA [CACACA_site7730],9.65
15,TACACCCATGGACACACACACACGCATAAAAAAAAA [CACACA_site4933],10.7
16,AAAAAAAAAAAAAAAACACACATTTGAAAGAAAGAA [CACACA_site3339],9.69
17,ATTTTTATTTTCTTTACACACCACATAATTTTTTTT [CACACA_site6092],10.1
18,ATGAACATTTATAAATGTACTCACATATATATATTT [XGTACX_site6692],9.65
19,TTTATATTTATCCAAAGTACTTTTTAAAAACATACC [XGTACX_site4518],9.48
20,TTTTTGTTTTTTTTTTGTACATATATATAAAAAATA [XGTACX_site1214],9.5
21,TTTTTTTTAATATTTTACATTGTCTGTTAACAAATA [CACACA_negctrl_site599],9.57
22,AGATATATATTTTATTGTACACATTAAAGTATAAAA [XGTACX_site7194],9.47
23,AACATTTTTAGATTATATTATTAAATAAGTAACTGC [XGTACX_negctrl_site326],9.42

row,Sequence,gcPBM binding intensity (ln)
1,AACACTTTAATTTATGCACACATATGGAACAACAGC [CACACA_site8241],9.97
2,AAGTTTTTTATTTTTTGTACATAAAAAATAATAATT [XGTACX_site1755],9.42
3,TATGTATTTATATATACACACTTCTGTGATACGAAA [CACACA_site5128],9.61
4,AGTAAACGATGATGTTGTACAAAAAGGATAATTTAA [XGTACX_site6698],9.91
5,TTTTTATTTTTTATGTAATTTAAATAATTATTCAAA [CACACA_negctrl_site1549],9.4
6,CAATACTATTATTATAGTACGTATAAAATTATATAT [XGTACX_site4950],9.7
7,TACAAAAAAGAAGATATTCAAACAAAAACAAAAAAA [CACACA_negctrl_site1126],9.55
8,TATATATATATGCTACGTACATATATATTATATATA [XGTACX_site7894],9.72
9,TATCATAATAGACACAGTACATATATGTCTTAAATT [XGTACX_site8775],9.65
10,GTATTCTTCTCTCCGTGTACATATATATGTATATAT [XGTACX_site803],10.1
11,ACACATACATACATATGTACATATATACATATATAC [XGTACX_site5559],9.92
12,TATATATAAACAAAATGTACATATTTGAGATACCCT [XGTACX_site2195],9.82
13,AAACCGTGGGAGCACACACACACACGCGCACATATA [CACACA_site6288],10.5
14,GTAACCCACCAAAATGCACACATTAAAAAAAAAAAA [CACACA_site1046],9.66
15,TGTTTCTAAAAAAAAGGTACACATATATATAATATA [XGTACX_site3217],9.49
16,ATAGTTTATACAAATAGTACGCACAAAAAAAAATAA [XGTACX_site6727],9.8
17,AAAAAATTTCAAATGACATAATGTAATTTCCCTTTT [GTGCAC_negctrl_site673],9.45
18,TATATATTATATATATGTACATATTTATTTTATTTT [XGTACX_site6989],9.86
19,AATACCGGAAAGCAAACACACATTTGAAAACCATAA [CACACA_site7761],9.99
20,TTTATCAAAATAAATGCACACAAATTGCACATATCT [CACACA_site8281],9.86
21,AACGGGGGTAGTTTTATGCACACGTTTATTAATGCT [CACACA_site3173],9.85
22,GATATGAATATAGGTTGTACTATATATAAAGTATGT [XGTACX_site1877],9.71
23,TATATGTTAATTTTTTTTTTTTTTTTTTTTTTTATA [CACACA_negctrl_site62],9.26

row,Sequence,gcPBM binding intensity (ln)
1,AAAGTACAAGTATAATCACACGTGTCTATTATATAC [CACACA_site4507],10.2
2,ACATGAATTTATATGTGTACTAACTATATTCTTAAA [XGTACX_site5966],9.6
3,TATCTGTATTTATTCACACATATAAAATATAATTAA [CACACA_site5560],9.28
4,ATGAATAAATAGGTCACACACAAATATTTATAAATA [CACACA_site7186],10.2
5,TCTGGCATATAATATTGTACACATATATATATATAT [XGTACX_site8182],9.99
6,TATATACAATATAGGTGTACATTTTTTTATCTATTT [XGTACX_site8431],9.7
7,ATAATGTTTTATAATACACACATTATATATATAAAT [CACACA_site6101],9.72
8,GATTACAAAAAAAATACACACAAAAAAAAAAAGGAA [CACACA_site2096],10.3
9,ATATTTATGTAAAAAAGTACATACAATTATATATGT [XGTACX_site3750],9.67
10,AATATCTTAGTGGATACACACATATAAATGTGTATT [CACACA_site6367],9.82
11,CTTTCAATTTTTTTCTGTACCAATAAAAAATATAAA [XGTACX_site2120],9.14
12,TTGAGCATAAAATTTGGAAACCTCAATCGGACAAAA [GTGCAC_negctrl_site84],9.53
13,CAACTCTTATTTAATTATATGAATTAATTTATATGA [CACACA_negctrl_site200],9.27
14,TGCATAAATTTATGCACACATAAAAAAAAAAAAAAA [CACACA_site2923],9.62
15,CATAAATGTCTCACATGTACATATGCATTTTTAAAA [XGTACX_site3194],9.45
16,TATATATAATATTGCACACAAAATTAAAAGTAAATA [CACACA_site19],9.89
17,ATTATTTTGTTTATTACATGCAGGTGTATATTACAG [TGCATGCA_site723],9.59
18,GAGTATATTTATATTGCACACAATTTTTTTATTTTT [CACACA_site2644],9.93
19,TTAAATACTAAAAAGTGTACACATACATAAAAAATT [XGTACX_site6261],9.77
20,ATTATGTTAATAATATGTACATATATCTACATATAT [XGTACX_site7978],9.91
